In PubChem BioAssay AID720709 (National Center for Advancing Translational Sciences (NCATS), 2013):
Hit rate of the full screen: of about 360,000 compounds, about 520 (0.14%) were called active. Inconclusive means that the source gave no clear call. Such entries were picked first, then a sample of the others. Calls come from the whole dose curve; as a rule, active = well fitted inhibition curve with a large enough effect; inconclusive = small, poorly fitted or top-dose-only effect; inactive = no such curve, though single readings can be large or run the other way. A potency beside an inconclusive call is a rough fit, not a confirmed value.

The compounds below were run against Rap guanine nucleotide exchange factor 3 (Homo sapiens) (UniProt O95398) (assay: qHTS for Antagonist of cAMP-regulated guanine nucleotide exchange factor 3 (EPAC1): primary screen). Details: EPAC1 GEF assay, Rap1b-BODIPY-GDP exchange fluorescence; activity change, negative = inhibition: at 115 µM (top of the series).
Note: nearly all actives have a fitted effect of over 50% in size.
Potency is the fitted concentration of half-maximal effect; tags give direction and shape of the fitted curve.
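Throughout, for activity change, negative = inhibition: plate controls were vehicle for no effect and positive control for full effect.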

Chain of UniProt O95398 (O95398 whole entry, looked up): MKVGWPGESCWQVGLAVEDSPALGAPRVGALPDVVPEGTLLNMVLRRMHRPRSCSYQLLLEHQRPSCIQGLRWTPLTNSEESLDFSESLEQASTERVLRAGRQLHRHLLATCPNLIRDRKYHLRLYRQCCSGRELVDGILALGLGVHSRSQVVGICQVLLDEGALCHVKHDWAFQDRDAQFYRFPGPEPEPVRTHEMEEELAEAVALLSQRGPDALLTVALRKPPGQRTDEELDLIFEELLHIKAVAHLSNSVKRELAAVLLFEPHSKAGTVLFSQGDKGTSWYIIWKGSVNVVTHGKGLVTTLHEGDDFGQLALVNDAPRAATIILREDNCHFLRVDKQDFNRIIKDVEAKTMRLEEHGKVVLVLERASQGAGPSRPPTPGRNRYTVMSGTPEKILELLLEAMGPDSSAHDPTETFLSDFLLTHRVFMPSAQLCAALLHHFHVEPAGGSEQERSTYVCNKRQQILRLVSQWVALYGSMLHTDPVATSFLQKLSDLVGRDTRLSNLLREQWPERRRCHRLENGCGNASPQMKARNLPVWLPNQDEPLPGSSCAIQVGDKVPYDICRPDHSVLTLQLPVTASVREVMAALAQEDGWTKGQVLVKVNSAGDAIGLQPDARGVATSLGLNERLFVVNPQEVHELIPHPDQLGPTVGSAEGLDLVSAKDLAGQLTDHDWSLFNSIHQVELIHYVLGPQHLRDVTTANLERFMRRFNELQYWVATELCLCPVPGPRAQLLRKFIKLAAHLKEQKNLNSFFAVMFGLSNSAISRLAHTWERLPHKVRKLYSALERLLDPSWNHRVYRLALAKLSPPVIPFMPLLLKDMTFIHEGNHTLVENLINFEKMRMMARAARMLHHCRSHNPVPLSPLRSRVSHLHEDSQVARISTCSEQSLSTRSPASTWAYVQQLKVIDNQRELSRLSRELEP

Potency, inconclusive:
O=C(Nc1nc(-c2ccco2)c(-c2ccco2)s1)C1CC(=O)N(c2ccc3c(c2)OCCO3)C1 (centres undefined) 28.2 µM [inhibitor, full curve]
CCCCN1C(=O)NC(NC(=O)C2CC2)(C(F)(F)F)C1=O (centres undefined) 14.1 µM [inhibitor, partial curve]
O=C(N/N=C/c1ccc(O)c(O)c1)c1cccc(S(=O)(=O)N2CCCC2)c1 100 µM [inhibitor, single point]
NC(=O)c1cc2ccccc2o/c1=N\NC(=O)c1ccc(F)cc1 100 µM [inhibitor, partial curve, poor fit]
COc1ccc(CNC(=O)c2ccc(N3CCC4(CC3)CC(c3ccc(Cl)cc3)=NO4)c(NC(=O)Cc3ccc(F)cc3)c2)cc1 2.82 µM [inhibitor, full curve, poor fit]
COC/C=C/C1=CC2=CC(=O)C(C)(OC(=O)C3CCCC3)C(=O)C2=CO1 (centres undefined) 50.1 µM [inhibitor, partial curve]
CCc1ccc(NC(=S)N(Cc2ccc(Cl)cc2)Cc2ccc(C(=O)O)cc2)cc1 100 µM [inhibitor, single point]
CC(C)c1nc(SCC(=O)N2CCCc3ccccc32)c2c(=O)n(C)c(=O)n(C)c2n1 17.8 µM [inhibitor, single point]
Cc1[nH]nc2c1C1(CCOCC1)C(C#N)=C(N)O2 100 µM [inhibitor, single point]
Cc1ccc(C(=O)NCCCNC(=O)c2ccco2)cn1 100 µM [inhibitor, single point]
O=C(OCc1ccccc1)N1CCC2CC1c1cc(N3CCN(S(=O)(=O)c4cccc(C(F)(F)F)c4)CC3)ccc12 (centres undefined) 100 µM [inhibitor, single point]
COC(=O)c1cc(-c2ccc(Br)cc2)c2c(=O)[nH]c(=O)n(C)c2n1 14.1 µM [inhibitor, partial curve]

Potency, inactive:
CC(C)C(=O)N1CCC1(C)C(=O)Nc1ccc2[nH]ccc2c1 (centres undefined)
CC(=O)C[C@H](O)CC(=O)[C@@H]1OC(=O)CCCCCc2ccccc21
Nc1cc(Cl)ccc1N1CCCCC1
O=C(NCC1CC1)C1Cc2c(-c3ccc4c(c3)OCO4)ccnc2O1 (centres undefined)
Cc1csc(SCC(=O)NC2CCS(=O)(=O)C2)n1 (centres undefined)
N#Cc1ccc(C(=O)N2CCCCC2c2cc(C(=O)Nc3ccc4c(c3)OCO4)no2)cc1 (centres undefined)

Activity change, negative = inhibition, inconclusive:
CCN(CC)S(=O)(=O)c1ccc(NC(=O)C(C)N(c2ccccc2)S(C)(=O)=O)cc1 (centres undefined) -17.5% [inhibitor]
